From patent publication US20060281072A1 (CRUCELL HOLLAND B V, published 2006)

T1: human OX40-Ig fusion protein (human, UniProt P43489 29-214)
T1 construct: extracellular domain; Bought (Alexis Biochemicals); not shown: CH2 and CH3 domains of human IgG1
T1 sequence (looked up): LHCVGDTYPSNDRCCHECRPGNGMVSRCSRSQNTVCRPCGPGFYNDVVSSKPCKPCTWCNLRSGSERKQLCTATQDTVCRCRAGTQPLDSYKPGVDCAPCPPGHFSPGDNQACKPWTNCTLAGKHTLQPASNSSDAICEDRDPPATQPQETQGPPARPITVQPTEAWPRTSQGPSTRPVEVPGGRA

T2: human OX40-receptor (human, UniProt P43489 29-277)
T2 construct: whole, on cells; also called CD134; ACT-4
T2 sequence (looked up): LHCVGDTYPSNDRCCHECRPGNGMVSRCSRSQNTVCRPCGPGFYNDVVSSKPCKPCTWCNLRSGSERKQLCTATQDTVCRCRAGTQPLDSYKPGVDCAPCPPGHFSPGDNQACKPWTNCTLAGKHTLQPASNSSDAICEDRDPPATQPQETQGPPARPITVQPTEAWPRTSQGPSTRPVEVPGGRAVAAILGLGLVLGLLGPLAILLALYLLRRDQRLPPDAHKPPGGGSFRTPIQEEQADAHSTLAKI

B1: phage antibody SC02021 (scFv) (scFv)
scFv: MAEVQLVESGGGLVQPRGSLRLSCAASGFTFSSYAMNWVRQAPGKGLEWVAVISYDGSNKYYADSVKGRFTISRDNSKNTLYLQMNSLRAEDTAVYYCAKDRYITLPNALDYWGQGTLVTVLEGTGGSGGTGSGTGTSEL[here about 100 residues without letters]YCQQYKSNPPTFGQGTKVEIKRAA
B2: phage antibody SC02010 (scFv) (scFv)
scFv: MAEVQLVESGGGLIQPGGSLRLSCAASGFTFSGYPMNWVRQAPGKGLEWVAVISYDGSNKYYADSVKGRFTISRDNSKNTLYLQMNSLRAEDTAVYYCARDMSGFHEFDYWGQGTLVTVLEGTGGSGGTGSGTGTSELTQSPSSLSASVGDRVTIT[here about 80 residues without letters]FGQGTKVEIKRAA

Tests used:
[1] = target: T1, human OX40-Ig fusion protein; test: phage ELISA on coated human OX40-Ig, anti-M13 peroxidase, absorbance at 492 nm
Description: Selected phage antibodies that were obtained in the screen described above, were validated in ELISA for specificity. For this purpose, human OX40-Ig was coated to Maxisorp™ ELISA plates. After coating, the plates were blocked in 2% MPBS. The selected phage antibodies were incubated in an equal volume of 4% MPBS. The plates are emptied, washed once in PBS, after which the blocked phages were added. Incubation was allowed to proceed for 1 hour, the plates were washed in PBS containing 0.1% Tween-20 and bound phages were detected using an anti-M13 antibody conjugated to peroxidase. As a control, the procedure was performed simultaneously using a control phage antibody directed against thyroglobulin (De Kruif et al. 1995a and 1995b), which served as a negative control.

[2] = target: T2, human OX40-receptor; test: flow cytometry, mix of OX40-receptor transfected (green, PKH67) and control transfected PER.C6 cells, M13 anti-phage PE
Description: In another assay the phage antibodies were analyzed for their ability to bind PER.C6™ cells that recombinantly express human OX40-receptor. To this purpose PER.C6™ cells were transfected with a plasmid carrying a cDNA sequence encoding human OX40-receptor or with the empty vector and stable transfectants were selected using standard techniques known to a person skilled in the art (Coligan et al., 2001). For flow cytometry analysis, phage antibodies were first blocked in an equal volume of 4% MPBS for 15 minutes at 4° C. prior to the staining of the OX40-receptor- and control transfected PER.C6™ cells. The blocked phages were added to a mixture of unlabelled control transfected PER.C6™ cells and OX40-receptor transfected PER.C6™ cells that were labelled green using a lipophylic dye (PKH67, Sigma). The binding of the phage antibodies to the cells was visualized using a biotinylated anti-M13 antibody (Santa Cruz Biotechnology) followed by streptavidin-phycoerythrin (Caltag).

[3] = target: T2, human OX40-receptor; test: flow cytometry on synovial fluid mononuclear cells, M13 anti-phage APC against CD4 PE
Description: In another assay the phage antibodies were analyzed for their ability to bind to OX40-receptor positive CD4+ T-cells derived from inflamed tonsils or from synovial fluid from patients suffering from rheumatoid arthritis. As a control, the staining pattern of the anti OX40-receptor phage antibodies on peripheral blood mononuclear cells (MNC) is also shown.
Inflamed tonsils were obtained from patients undergoing routine tonsillectomy. Tonsils were minced and the MNC fraction was isolated by density centrifugation. Flow cytometric analysis of the binding of the anti-OX40-receptor phage antibodies to the OX40+ CD4+ T-cells was performed as described above. The CD4+ T-cells were distinguished from total tonsil MNC using a FITC conjugated antibody against CD4. As shown in FIGS. 3A and 3B the selected anti-human OX40-receptor phage antibodies called SC02008, SC02009, SC02010, SC02011, SC02012 and SC02021 selectively stain a subset of CD4+ T-cells within tonsil and synovial fluid mononuclear cells respectively, while they display minor staining of peripheral blood CD4+ T-cells (FIG. 3C).

| Binder | binding result [1] | binding result [2] | binding result [3] |
| --- | --- | --- | --- |
| B1 | binds | binds | – |
| B2 | binds | – | binds |
